Measurements taken from patent US11178870B2 (priority 2017, dated 2021).

How the values were obtained:
[1] = system: Colletotrichum orbiculare; details: 250 ppm sprayed (2.5 ml/pot) before inoculation; assessed 6 to 10 days after inoculation
Magnaporthe grisea = format: in vivo; details: Table 7, Test A
Phytophthora infestans = format: in vivo; details: Table 7, Test F

Row | Compound | control value, Test H (anthracnose on cucumber) [1] | control value, Test A (blast on rice) (Magnaporthe grisea) | control value, Test F (late blight on tomato) (Phytophthora infestans)
1 | CCn1c(-c2ccc(F)cc2C)c(-n2ncc(C)c2Cl)cc(Cl)c1=O [Compound 369] | H (H shows the control value more than 50%) | – | –
2 | CCn1c(-c2ccc(F)cc2C)c(-n2ncc(C)c2Cl)cc(Br)c1=O [Compound 371] | H (H shows the control value more than 50%) | H (H shows the control value more than 50%) | L (L shows the control value of 50% or less)
